Experimental data: the supplement of paper PMC12217912
The other results are listed elsewhere or left out. The full chains were built here from the parent and the listed change. Values near 0.05 are background.

B1: TEV protease; numbered along this chain (parent)
chain: MGESLFKGPRDYNPISSSICHLTNESDGHTTSLYGIGFGPFIITNKHLFRRNNGTLVVQSLHGVFKVKDTTTLQQHLVDGRDMIIIRMPKDFPPFPQKLKFREPQREERICLVTTNFQTKSMSSMVSDTSCTFPSGDGIFWKHWIQTKDGQCGSPLVSTRDGFIVGIHSASNFTNTNNYFTSVPKNFMELLTNQEAQQWVSGWRLNADSVLWGGHKVFMVKPEEPFQPVKEATQL

Variants of: B1
Experiment: raw area under fraction-flipped curve 0-4 h after induction (AUC4h, not background-subtracted), DNA-recorder readout of cleavage of the substrate (dimensionless); higher = more cleavage of the substrate by the protease variant
Conditions: temperature: 34 °C; time window: 0-4 h after rhamnose induction
Protocol: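 In vivo DNA recorder in E. coli TOP10(DE3) ΔrhaA at 34 °C. Each TEVp single-site mutant (parent TEVp 0) is paired with a single-site variant of the 7-mer TEVs (canonical ENLYFQ|S). The substrate sits between flexible linkers in a Bxb1-sfGFP-TEVs-SsrA fusion, so cleavage stabilises Bxb1 and speeds flipping of a recombination array, read by NGS. The value is the raw area under the fraction-flipped curve over 0-4 h after rhamnose induction (AUC4h), with ≥20 reads per time point. It is not background-subtracted; inactive controls average about 0.047.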
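Further: Bxb1 expression induced with 0.2% (w/v) L-rhamnose at OD600 near 0.5, cultures sampled hourly, flipped fraction per protease–substrate barcode pair counted by paired-end Illumina sequencing.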

Variant | area with substrate DNLYFQS | area with substrate HNLYFQS | area with substrate INLYFQS | area with substrate KNLYFQS | area with substrate LNLYFQS | area with substrate MNLYFQS | area with substrate NNLYFQS | area with substrate PNLYFQS | area with substrate SNLYFQS | area with substrate TNLYFQS | area with substrate WNLYFQS | area with substrate YNLYFQS | area with substrate FNLYFQS | area with substrate GNLYFQS | area with substrate RNLYFQS | area with substrate QNLYFQS | area with substrate VNLYFQS
D149W | 0.0544 | 0.0579 | 0.0641 | 0.0451 | 0.0617 | 0.0598 | 0.0532 | 0.0596 | 0.0676 | 0.0453 | 0.0566 | – | – | – | – | – | –
G150M | 0.0792 | 0.0573 | 0.0549 | 0.0597 | – | 0.0796 | 0.0575 | 0.0638 | 0.045 | 0.0576 | 0.0642 | – | – | – | – | – | –
Q151V | 0.0686 | 0.0449 | – | 0.0466 | – | – | – | 0.0625 | – | 0.0753 | 0.0519 | 0.0497 | – | – | – | – | –
G153D | 0.0467 | – | – | – | – | 0.0263 | – | 0.049 | 0.0595 | – | 0.072 | – | 0.0497 | 0.0481 | – | – | –
S154E | 0.0535 | – | 0.0467 | 0.0576 | 0.0501 | – | 0.0498 | – | – | – | 0.0465 | – | 0.0801 | – | – | – | –
P155T | 0.074 | 0.055 | 0.0588 | – | 0.0671 | 0.0336 | – | – | 0.0495 | – | 0.0462 | 0.0385 | – | – | 0.0532 | – | –
L156P | 0.0577 | 0.0596 | 0.0495 | 0.0608 | 0.0564 | 0.0443 | 0.0366 | 0.0497 | 0.0586 | 0.0568 | – | – | 0.0481 | 0.0499 | 0.065 | – | –
V157C | 0.12 | – | – | – | – | – | – | 0.0729 | – | 0.0534 | – | – | – | – | – | – | –
V157H | 0.048 | 0.0471 | – | 0.0421 | 0.0627 | 0.0554 | 0.0185 | 0.0658 | – | 0.0426 | 0.0461 | – | – | 0.058 | – | 0.0539 | 0.0524
V157K | 0.0594 | 0.0638 | – | – | – | – | – | 0.0569 | – | 0.062 | – | – | – | – | – | – | –
S158K | 0.0531 | 0.0765 | 0.0313 | 0.0458 | 0.0646 | 0.0556 | 0.04 | – | 0.0415 | 0.0435 | 0.0544 | 0.019 | 0.0523 | – | – | – | –
S158Q | 0.0559 | 0.0609 | 0.0566 | – | – | 0.0611 | 0.0421 | 0.0484 | 0.0641 | 0.0508 | 0.0658 | – | – | 0.0408 | 0.0737 | – | –
T159W | 0.0809 | – | – | – | – | – | – | 0.046 | – | – | – | – | – | – | 0.0708 | – | 0.0782
D161L | 0.0534 | 0.0381 | – | – | 0.058 | 0.0592 | 0.0485 | – | 0.0373 | 0.0517 | 0.0645 | 0.0508 | 0.0536 | 0.0584 | – | – | –
D161N | 0.0662 | 0.0512 | 0.0536 | 0.0782 | 0.0448 | 0.06 | 0.0577 | 0.0681 | – | 0.0555 | 0.0537 | 0.0369 | 0.0581 | 0.0667 | 0.0605 | – | 0.0546
G162Q | 0.0854 | 0.0704 | 0.0528 | – | – | – | 0.0784 | 0.063 | 0.0695 | – | 0.0608 | 0.0604 | 0.0549 | – | – | 0.069 | 0.0686
G162T | 0.0712 | 0.0585 | – | 0.076 | 0.0548 | – | 0.0589 | 0.0517 | 0.0544 | 0.0629 | 0.0527 | – | – | – | – | – | –
F163C | 0.0953 | – | – | – | – | – | – | – | 0.0671 | – | – | 0.0766 | 0.0633 | – | 0.0625 | – | 0.0459
F163G | 0.0965 | – | 0.0679 | 0.074 | – | – | – | 0.073 | – | – | 0.0516 | – | – | 0.0559 | – | – | –
